According to a collection of fitness landscapes (doi:10.1016/j.celrep.2020.107928):
Over roughly 81,000 sequences, “one-hybrid fitness for binding NBS DNA” has its median near -0.1; the highest 2% begin near 0.36. The list shows a part of the results.

B1: Caulobacter ParB omega fusion; a variant is named by its letters at X, in order, B8GW30 (parent)
chain: MESVVVGEPGMSEGRRGLGRGLSALLGEVDAAPAQAPGEQLGGSREAPIEILQRNPDQPRRTFREEDLEDLSNSIREKGVLQPILVRPSPDTAGEYQIVAGERAWRAAQRAGLKTVPIMVRELDDLAVLEIGIIENVQRADLNVLEEALSYKVLMEKFERTQENIAQTIGKSXSHVANXMRLLXLPDEVQSYLVSGELTAXHARAIAAAADPVALAKQIIEGGLSVRETEALARKAPNLSAGKSKGGRPPRVKDTDTQALESDLSSVLGLDVSIDHRGSTGTLTITYATLEQLDDLCNRLTRGI

Variants of: B1
Assay: one-hybrid fitness for binding NBS DNA (the Noc-binding site; scaled: cognate 1, non-cognate 0); higher = stronger binding
Conditions: with NBS DNA site
Outline: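 Values were rescaled so that cognate is 1 and non-cognate is 0. Each is a fitness, the log change in a variant's read ratio to wild type from Illumina reads of plasmids before and after selection, with three replicate libraries pooled and variants under 10 reads dropped. Selection of the Caulobacter ParB libraries, four specificity codons randomised, used E. coli USO with a HIS3 reporter, site 19 bp from the promoter, on M9-minus-histidine with 0.1 mM IPTG and 5 mM 3-AT for 48 hours at 37°C.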

one-hybrid fitness for binding NBS DNA, 0.229:
QWSR

one-hybrid fitness for binding NBS DNA, ≤ 0.2:
KAQS
REPK
FLTT
QVKL
TIFW
RAQQ
RMTC
VMNP
QDHE
TPAS
MCMS
HVQA
QKMV
QKDG
PAAA
TDPM
ATAW
HFHR
MNTE
PVNV
YLPA
HCQW
YCDC
GATH
EKLR
RACI
PWRR
MAAS
TLVT
FRQC
SPTM
RKVG
VTRW
AGNS
LVGS
PTGY
VSNV
VSTN
VQRL
QFDN
IMPS
YAAT
MSKM
PAVV
CNCR
PRPT
AFYL
SPEI
KAYC
NMVF
PTGS
VIMC
NMIA
NSAW
IEMF
TSHS
GSTA
SIPN
YRTC
TGNH
WPDT
SVAV
QLTI
ATTC
YLRD
TWVV
HHPA
FPNT
NCAP
NRAE
KNRG
PVLI
GYGS
QMAE
NCAV
RFRN
CQYT
SVFI
PRIM
NVRR
LTAK
MKTC
VENG
PISR
HRKN
HGTI
WTCV
TYPL
VKCR
SDQG
AQSS
PFYW
CRVN
VLNL
GFAG
GWCC
PFFE
SLIV
DSLG
HNWG
YSAM
VLLG
GYEG
CHQT
WQVS
SQEC
RAKL
GGMR
SCTS
LALR
LRDK
HQRT
HLVV
PTRV
SEDW
PPYF
ECTR
KDSW
AKAS
CRDC
SLIP
QIHF
AQPY
QQIF
TQTR
FIRA
PLTH
WPRY
AANG
ARRA
RNDG
KRGK
ARHS
AAPA
CRYR
SDEY
VDTH
NYFC
DYGF
GICP
YRRM
QVAL
HLKD
RMRE
QQVG
AHSL
RSLN
AKFY
LVEC
DAPT
AKMR
ALMV
STKM
FMSV
VKMT
AAGC
IISS
KLYS
WLEG
PLSD
MSSR
IQTT
APAW
KLKC
KSLG
VTNS
PCSS
RVMN
EISW
QYDG
EGYA
HGYS
DWSA
YAKW
HQQD
WRNR
RCED
WNYG
GEKR
SAQC
ARKH
HKTK
PMIT
HCAA
HLNS
MTGC
AHCS
ADLM
CQPL
REGG

one-hybrid fitness for binding NBS DNA, 0.397:
QTSA

one-hybrid fitness for binding NBS DNA, 0.28:
QMSA

one-hybrid fitness for binding NBS DNA, 0.824:
RRWT

one-hybrid fitness for binding NBS DNA, 0.214:
RKMH
